The values that follow come from article PMC9605988, “Juxtaposition of Bub1 and Cdc20 on phosphorylated Mad1 during catalytic mitotic checkpoint complex assembly” (Nature Communications, 2022).

The target of assay [1] is T1, Mad1^CTD phosphorylated at Thr716 (pMad1^CTD) (UniProt Q9Y6D9).
T1 sequence (chain, phosphothreonine at 716 (pThr716)): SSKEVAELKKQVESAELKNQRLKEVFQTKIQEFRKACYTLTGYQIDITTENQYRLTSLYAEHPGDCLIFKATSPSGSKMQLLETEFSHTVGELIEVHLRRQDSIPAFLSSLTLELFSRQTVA
As to the kind of experiment: SEC-MALS; Superdex 75 or Superdex 200 Increase 10/300 GL, 0.5 ml/min; about 100 μl at ~3.0 mg/ml; Mad1^CTD dimer to Cdc20^N 1:1.2; proteins also run alone; both purified. On the technique in general: SEC sorts molecules by how far they enter the pores of the column.

The target of assay [2] is T2, Mad1^CTD R617E/K619D mutant (UniProt Q9Y6D9).
T2 sequence: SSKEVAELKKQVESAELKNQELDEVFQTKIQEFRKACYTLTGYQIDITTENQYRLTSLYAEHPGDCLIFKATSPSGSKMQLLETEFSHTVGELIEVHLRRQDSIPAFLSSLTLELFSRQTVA
The description is as above.

Assay [3] deals with T1, Mad1^CTD phosphorylated at Thr716 (pMad1^CTD). In words: NMR titration; Cdc20 α1 or Box1 peptide titrated to 15N-labelled Mad1^CTD or pMad1^CTD; chemical shift perturbations in 1H,15N HSQC; 298 K; both purified.

These are yes or no findings as the source states them, for the method shown. Some results given as binding are weak or reduced against the parent protein; the word gives no strength.

“Cdc20^N E7R/D9K mutant (from UniProt Q12834 1-73) (domain or fragment)”: the binding entry in assay [1] and in assay [2] was “no binding (tested: ~3.0 mg/ml injected)” throughout.

As to MAQFAFESDLHSLL [Cdc20 α1 peptide], the binding entry in assay [3] is “binds weakly”.

B1: Cdc20^N (N-terminal truncation of Cdc20, residues 1-73) (domain or fragment, human, UniProt Q12834 1-73, looked up)
chain: MAQFAFESDLHSLLQLDAPIPNAPPARWQRKAKEAAGPAPSPMRAANRSHSAGRTPGRTPGKSSSKVQTTPSK
notes: human Cdc20, residues 1-73; also called Cdc20^1–73; wild-type Cdc20^N; source: E. coli Rosetta 2 (DE3), purified (TALON, TEV cleavage, HisTrap, Resource S, Superdex 75); not shown: His6, N-terminal, cleaved; MBP, N-terminal, cleaved
On to B1, for which the binding result in assay [2] is on record as “no binding (tested: ~3.0 mg/ml injected)”.

B2: Cdc20^N RRK/SSS mutant (Arg27, Arg30, Lys31 to Ser) (domain or fragment, human, UniProt Q12834 1-73, looked up)
chain: MAQFAFESDLHSLLQLDAPIPNAPPASWQSSAKEAAGPAPSPMRAANRSHSAGRTPGRTPGKSSSKVQTTPSK
notes: human Cdc20, residues 1-73; The purification (with tag cleavage) is told for Cdc20^N; likely the same for the mutant; source: site-directed mutant of the Cdc20^N construct, purified
B2: in assay [1], the binding result is on record as “no binding (tested: ~3.0 mg/ml injected)”.
